Data from the supplement of paper PMC8728848.
The other results are listed elsewhere or left out.

What was measured:
Test in all cases: glycan array binding signal (z-score within array); higher = stronger binding
Details in all cases: glycan notation: IUPAC condensed, linker removed
[1] = target: Neu5Ac(a2-6)Gal(b1-4)GlcNAc(b1-2)Man(a1-6)[GlcNAc(b1-2)Man(a1-3)]Man(b1-4)GlcNAc(b1-4)GlcNAc
Outline: (§1)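 The binding signal is a Z-score computed within each array. Data were drawn from 3228 arrays in the Consortium for Functional Glycomics database, restricted to those with a known protein sequence. Scores were averaged over arrays of the same protein sequence at different concentrations or buffers, and over linkers, and negative values can be taken as non-binding.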

[2] = target: Neu5Ac(a2-6)Gal(b1-4)GlcNAc(b1-2)Man(a1-6)[Man(a1-3)]Man(b1-4)GlcNAc(b1-4)GlcNAc
Outline: as §1

[3] = target: Neu5Ac(a2-6)Gal(b1-4)GlcNAc(b1-2)[Neu5Ac(a2-6)Gal(b1-4)GlcNAc(b1-4)]Man(a1-3)[GlcNAc(b1-4)][Neu5Ac(a2-6)Gal(b1-4)GlcNAc(b1-2)[Neu5Ac(a2-6)Gal(b1-4)GlcNAc(b1-6)]Man(a1-6)]Man(b1-4)GlcNAc(b1-4)GlcNAc
Outline: as §1

[4] = target: Neu5Ac(a2-6)Gal(b1-4)GlcNAc(b1-2)[Neu5Ac(a2-6)Gal(b1-4)GlcNAc(b1-4)]Man(a1-3)[GlcNAc(b1-4)][Neu5Ac(a2-6)Gal(b1-4)GlcNAc(b1-4)Man(a1-6)]Man(b1-4)GlcNAc(b1-4)GlcNAc
Outline: as §1

[5] = target: Neu5Ac(a2-6)Gal(b1-4)GlcNAc(b1-2)[Neu5Ac(a2-6)Gal(b1-4)GlcNAc(b1-6)]Man(a1-6)[Neu5Ac(a2-6)Gal(b1-4)GlcNAc(b1-2)Man(a1-3)][GlcNAc(b1-4)]Man(b1-4)GlcNAc(b1-4)GlcNAc
Outline: as §1

[6] = target: Neu5Ac(a2-6)Gal(b1-4)GlcNAc(b1-3)Gal(b1-3)GlcNAc
Outline: as §1

[7] = target: Neu5Ac(a2-6)Gal(b1-4)GlcNAc(b1-3)Gal(b1-4)GlcNAc
Outline: as §1

[8] = target: Neu5Ac(a2-6)Gal(b1-4)GlcNAc(b1-3)Gal(b1-4)GlcNAc(b1-2)Man(a1-3)[Neu5Ac(a2-6)Gal(b1-4)GlcNAc(b1-3)Gal(b1-4)GlcNAc(b1-2)Man(a1-6)]GalNAc
Outline: as §1

[9] = target: Neu5Ac(a2-6)Gal(b1-4)GlcNAc(b1-3)Gal(b1-4)GlcNAc(b1-3)Gal(b1-4)GlcNAc
Outline: as §1

[10] = target: Neu5Ac(a2-6)Gal(b1-4)GlcNAc(b1-3)Gal(b1-4)GlcNAc(b1-3)Gal(b1-4)GlcNAc(b1-2)Man(a1-3)[Neu5Ac(a2-6)Gal(b1-4)GlcNAc(b1-3)Gal(b1-4)GlcNAc(b1-3)Gal(b1-4)GlcNAc(b1-2)Man(a1-6)]GalNAc
Outline: as §1

[11] = target: Neu5Ac(a2-6)Gal(b1-4)GlcNAc(b1-3)Gal(b1-4)GlcNAc(b1-3)GalNAc
Outline: as §1

[12] = target: Neu5Ac(a2-6)Gal(b1-4)GlcNAc(b1-3)Gal(b1-4)GlcNAc(b1-3)[Neu5Ac(a2-6)Gal(b1-4)GlcNAc(b1-3)Gal(b1-4)GlcNAc(b1-6)]GalNAc
Outline: as §1

[13] = target: Neu5Ac(a2-6)Gal(b1-4)GlcNAc(b1-3)Gal(b1-4)GlcNAc(b1-6)[Gal(b1-3)]GalNAc
Outline: as §1

[14] = target: Neu5Ac(a2-6)Gal(b1-4)GlcNAc(b1-3)Gal(b1-4)[Fuc(a1-3)]GlcNAc(b1-3)Gal(b1-4)[Fuc(a1-3)]GlcNAc
Outline: as §1

[15] = target: Neu5Ac(a2-6)Gal(b1-4)GlcNAc(b1-3)GalNAc
Outline: as §1

[16] = target: Neu5Ac(a2-6)Gal(b1-4)GlcNAc(b1-3)[Neu5Ac(a2-6)Gal(b1-4)GlcNAc(b1-6)]GalNAc
Outline: as §1

[17] = target: Neu5Ac(a2-6)Gal(b1-4)GlcNAc(b1-6)GalNAc
Outline: as §1

[18] = target: Neu5Ac(a2-6)Gal(b1-4)GlcNAc(b1-6)[Gal(b1-3)GlcNAc(b1-3)]Gal(b1-4)Glc
Outline: as §1

[19] = target: Neu5Ac(a2-6)Gal(b1-4)GlcNAc(b1-6)[Gal(b1-3)]GalNAc
Outline: as §1

[20] = target: Neu5Ac(a2-6)Gal(b1-4)GlcNAc6S
Outline: as §1

Neu5Ac(a2-6)GalNAc = target: Neu5Ac(a2-6)GalNAc
Outline: as §1

[21] = target: Neu5Ac(a2-6)GalNAc(b1-4)GlcNAc
Outline: as §1

[22] = target: Neu5Ac(a2-6)GalNAc(b1-4)GlcNAc6S
Outline: as §1

B1: PFL (Pseudomonas fluorescens) (protein)
chain: MSKYAVANQWGGSSAPWHPGGTWVLGARDNQNVVAIEIKSGDGGKSFTGTMTYAGEGPIGFKAQRTGQNQYNVENQWGGNDAPWHPGGKWVIGGRDNQNVIALSVTSSDGGKNLSGTNTYANEGPIGFRGQIE
[1]
  glycan array binding signal (z-score): -0.111
[2]
  glycan array binding signal (z-score): -0.117
[3]
  glycan array binding signal (z-score): -0.093
[4]
  glycan array binding signal (z-score): -0.112
[5]
  glycan array binding signal (z-score): -0.112
[6]
  glycan array binding signal (z-score): -0.117
[7]
  glycan array binding signal (z-score): -0.112
[8]
  glycan array binding signal (z-score): -0.107
[9]
  glycan array binding signal (z-score): -0.115
[10]
  glycan array binding signal (z-score): -0.099
[11]
  glycan array binding signal (z-score): -0.118
[12]
  glycan array binding signal (z-score): -0.112
[13]
  glycan array binding signal (z-score): -0.118
[14]
  glycan array binding signal (z-score): -0.073
[15]
  glycan array binding signal (z-score): -0.111
[16]
  glycan array binding signal (z-score): -0.117
[17]
  glycan array binding signal (z-score): -0.113
[18]
  glycan array binding signal (z-score): -0.109
[19]
  glycan array binding signal (z-score): -0.117
[20]
  glycan array binding signal (z-score): -0.111
Neu5Ac(a2-6)GalNAc
  glycan array binding signal (z-score): -0.117
[21]
  glycan array binding signal (z-score): -0.113
[22]
  glycan array binding signal (z-score): -0.111
